# Assay results reported in publication PMC4336329 (PLoS ONE, 2015).
# Among all 310,000 compounds or so, about 2,200 (0.71%) showed an effect of 50% or more. The effect is printed as a negative number. This is one part of the list.
# Target: human ether-à-go-go-related gene (hERG) potassium channel (human, UniProt Q12809)
# Test: primary screen, population patch clamp on CHO cells stably expressing hERG
# human ether-à-go-go-related gene (hERG) potassium channel, sequence (Q12809 whole entry, looked up): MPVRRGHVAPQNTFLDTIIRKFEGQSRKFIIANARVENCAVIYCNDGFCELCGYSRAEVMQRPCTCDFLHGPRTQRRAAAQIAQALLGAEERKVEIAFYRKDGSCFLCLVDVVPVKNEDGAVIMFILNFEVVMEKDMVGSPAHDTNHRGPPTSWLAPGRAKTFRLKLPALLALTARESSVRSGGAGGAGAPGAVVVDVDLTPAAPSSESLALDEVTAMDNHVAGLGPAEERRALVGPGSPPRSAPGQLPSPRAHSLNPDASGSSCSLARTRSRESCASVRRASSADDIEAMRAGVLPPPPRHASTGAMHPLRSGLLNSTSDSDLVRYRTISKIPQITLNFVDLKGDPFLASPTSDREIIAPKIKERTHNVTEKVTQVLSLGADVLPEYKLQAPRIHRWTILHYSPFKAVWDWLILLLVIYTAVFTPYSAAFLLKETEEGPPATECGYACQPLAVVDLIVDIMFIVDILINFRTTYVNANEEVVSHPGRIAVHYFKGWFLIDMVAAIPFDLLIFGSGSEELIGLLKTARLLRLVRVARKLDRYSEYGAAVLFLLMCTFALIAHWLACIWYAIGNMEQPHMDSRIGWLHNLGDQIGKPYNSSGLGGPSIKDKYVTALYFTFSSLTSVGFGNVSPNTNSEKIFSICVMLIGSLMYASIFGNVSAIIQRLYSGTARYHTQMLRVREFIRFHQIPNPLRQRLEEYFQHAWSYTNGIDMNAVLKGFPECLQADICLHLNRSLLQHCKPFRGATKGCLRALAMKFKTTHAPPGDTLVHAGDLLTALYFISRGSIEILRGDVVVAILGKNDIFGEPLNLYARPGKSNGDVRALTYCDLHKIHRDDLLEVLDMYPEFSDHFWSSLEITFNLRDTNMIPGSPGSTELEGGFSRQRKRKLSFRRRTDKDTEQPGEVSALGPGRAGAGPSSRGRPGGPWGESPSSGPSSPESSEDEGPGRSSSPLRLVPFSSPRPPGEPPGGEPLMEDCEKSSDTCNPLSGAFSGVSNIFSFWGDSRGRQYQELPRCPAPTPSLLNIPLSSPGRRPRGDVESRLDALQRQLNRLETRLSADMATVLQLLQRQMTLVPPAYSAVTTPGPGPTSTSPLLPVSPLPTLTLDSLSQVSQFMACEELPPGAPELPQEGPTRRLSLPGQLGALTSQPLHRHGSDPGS
row,Compound,"hERG current change (%, negative = inhibition) at 1uM [%]"
1,COc1ccc(NC(=O)/C(C#N)=C/C=C/c2ccco2)cc1,10.9
2,c1ccc(-n2c(SCc3nc(-c4cccs4)no3)nnc2-c2ccco2)cc1,6.91
3,O=C(NCc1cccnc1)Nc1ccc(Br)cc1,6.55
4,O=C(Nc1ccc2c(c1)C(=O)OC2)c1ccccc1Cl,15.4
5,CNC(=S)NCCc1c[nH]c2ccc(OC)cc12,10.1
6,COc1ccc2oc(=O)c(C(=O)OCC(=O)c3ccc([N+](=O)[O-])cc3)cc2c1,13.8
7,COc1ccc(CN2C3CCC2CC(NC(=O)c2cccc(F)c2)C3)cc1 (stereo not shown),-81.1
8,COc1cc(C(=O)NCC2CCCN2S(=O)(=O)c2cccs2)cc(OC)c1OC (stereo not shown),9.66
9,CSC1=NCCN1C(=O)c1ccco1,17.8
10,O=c1c2c3c(sc2n2cnnc2n1-c1ccccc1)N(Cc1ccccc1)CCC3,11.4
11,CC1CCCC(=C\c2ccccc2)/C1=N/O (stereo not shown),8.23
12,COc1ccc(NC(=O)C2OC3OC(C)(C)OC3C3OC(C)(C)OC23)cc1 (stereo not shown),0.824
13,Cc1[nH]c2ccccc2c1/C=N/Nc1ccc(F)cc1F,9.46
14,COCCCNC(=O)CC1C(=O)N(Cc2ccccc2)C(C)c2nc3ccccc3n21 (stereo not shown),9.07
15,O=C(CN1C(=O)NC2(CCCC2)C1=O)NCCc1ccc(Cl)cc1Cl,13.9
16,COc1cc(C2N(C)CCC3(OCCO3)C2(C)C)cc(OC)c1OC (stereo not shown),3.22
17,COc1cc(OC)cc(C(=O)Nc2cccc(C(C)=O)c2)c1,3.63
18,CN(C)c1cccc(C(=O)N2CCCC(CCC(=O)N3CCN(c4ccccn4)CC3)C2)c1 (stereo not shown),-2.48
19,COc1ccc(-c2cc(C(=O)OCC(=O)N(C)C3CCS(=O)(=O)C3)c3ccccc3n2)cc1OC (stereo not shown),8.43
20,O=C(COc1ccccc1)NCCn1ccc2ccccc21,6.94
21,CCCCc1ccc(NC(=O)CC(C)(C)C)cc1,4.54
22,Cc1cc(C(=O)N2CCCC(N3CCN(c4ccc(F)cc4)CC3)C2)no1 (stereo not shown),-19.1

row,Compound,"hERG current change (%, negative = inhibition) at 1uM [%]"
1,Cc1cc2cc3c(cc2nc1SCc1ccc(C(=O)O)cc1)OCCO3,4.07
2,C/[N+]([O-])=C\C1C(=O)CCCC1=O,8.32
3,O=[N+]([O-])c1cccn2cc(-c3ccc(Br)cc3)nc12,-8.95
4,CCn1c(O)c(C=Nc2ccccc2)oc1=S,7.04
5,Cc1cc(OC(C)C)nc(NCc2ccccc2)n1,2.79
6,O=C(CCl)N1c2ccccc2SCC1c1ccccc1 (stereo not shown),23.2
7,COc1ccc(-c2nn(-c3ccccc3)cc2/C=N/N2C(=O)CSC2=S)cc1,3.55
8,Cc1cccc(-c2nc3c(c(SCC(=O)N4CCOCC4)n2)CCCC3)c1,11.2
9,COc1cccc(CNC(=O)c2ccc(COc3ccccc3)cc2)c1,26.2
10,O=C(O)C(=O)O.OC(COCc1ccco1)CN1CCN(c2ccccc2)CC1 (stereo not shown),3.71
11,CC(=O)NC1=NN(C(C)=O)C(C)(c2ccc(Br)cc2)S1 (stereo not shown),2.91
12,CC1(C)CC(=O)c2cc(O)ccc2O1,-0.296
13,COC(=O)C1=C(c2cccc(C#N)c2)C[C@@H]2CC[C@H]1N2C(=O)N1CCCCC1,1.15
14,O=C(CCc1nc2ccccc2[nH]1)Nc1ccc2c(c1)OCCO2,11.6
15,CCN(CC(=O)Nc1ccc(NC(C)=O)cc1)C(=O)c1cccc(Oc2ccccc2)c1,15.9
16,O=C(CCC(=O)N(CC(=O)NC1CCCC1)Cc1cccs1)Nc1nccs1,4.31
17,Cc1ccc(NC(=S)N2CCCC2)cc1,5.92
18,Cc1onc(-c2ccccc2)c1-c1ccnn1C(=O)NC(C)C,6.54
19,O=S(=O)(c1ccccc1)N(CC(O)COc1ccccc1)c1ccccc1 (stereo not shown),7.47
20,N#Cc1c(NC(=O)CN2C(=O)c3ccccc3C2=O)oc(-c2ccccc2)c1-c1ccccc1,-9.29
21,COc1ccc(-c2c(NC(=O)CC(C)C)n(C)c3ccccc3c2=O)cc1OC,22.8
22,O=C(CSc1nnc(CNc2ccc(F)cc2)o1)c1ccccc1,3.89

row,Compound,"hERG current change (%, negative = inhibition) at 1uM [%]"
1,COc1ccc(C2c3ccc4ccccc4c3Oc3ncn(CCN(C)C)c(=N)c32)cc1 (stereo not shown),-40.1
2,CCN(CC)CCSc1nnc2c3ccccc3n(Cc3ccccc3)c2n1,-73.4
3,Cc1onc(-c2c(Cl)cccc2Cl)c1C(=O)N=C(N)N1CCOCC1,14.1
4,O=C(c1cccc([N+](=O)[O-])c1)N1CCN(C/C=C/c2ccccc2)CC1,-21
5,N#CCC(=O)N/N=C\c1ccc(OC/C=C/c2ccccc2)cc1,12.3
6,CCCc1ccc(OCc2ccc(C(=O)N/N=C/c3cccc([N+](=O)[O-])c3)o2)c(OC)c1,10.1
7,COc1ccc(N(C(C)=O)S(=O)(=O)c2cc(OC)ccc2OC)cc1,1.18
8,Cc1cccc(NC(=O)c2cccs2)n1,12.1
9,CC(=O)C1=C(C)Nc2ncnn2C1c1ccccc1Cl (stereo not shown),6.69
10,COc1ccc(/C=N/Nc2cc(C)nc(N)n2)cc1,-7.98
11,COc1ccc(OC)c(/C=C(\C)C(=O)c2c(C)cc(C)[nH]c2=O)c1,10.8
12,C/C=C/C=C/C(=O)N1CC2(CC(c3cccc(NC(=O)/C=C/C)c3)=NO2)C[C@@H]1C(N)=O (stereo partly shown),10.7
13,CS(=O)(=O)Nc1ccc(C(=O)Nc2ccc3c(c2)OCCO3)cc1,6.07
14,COc1cccc(NC(=S)NC(C)c2ccc(OC)c(OC)c2)c1 (stereo not shown),8.49
15,COc1ccc([N+](=O)[O-])cc1NC(=O)CSc1ccccc1,0.785
16,NC(=O)c1c(NC(=O)c2ccc(S(=O)(=O)N3CCOCC3)cc2)sc2c1CCCCC2,-0.279
17,CCOC(=O)c1ccc(S(=O)(=O)N2CCN(CC3CC=CCC3)CC2)cc1.O=C(O)C(=O)O (stereo not shown),8.07
18,CCOc1ccc2c(c1)[N+](C)(C)C(C)(C)C=C2C.[I-],13.9
19,CCOc1ccc(Br)cc1S(=O)(=O)N1CC(C)OC(C)C1 (stereo not shown),-3.3
20,COc1ccc(C(=O)NCC(=O)N/N=C/c2cccnc2)cc1,12.8
21,Cc1cccc(C(=O)n2c(=S)nc3cc(C)ccn32)c1,17.2
22,Oc1ccccc1/C=N/NC(=S)NC1CC2C=CC1C2 (stereo not shown),8.03

row,Compound,"hERG current change (%, negative = inhibition) at 1uM [%]"
1,O=C(Cn1nnc(-c2ccccc2)n1)NCc1ccccc1,-3.18
2,O=C1CC(NCCC2=CCCCC2)C(=O)N1c1cccc(Cl)c1Cl (stereo not shown),9.34
3,COC(=O)CSc1ccccc1C(=O)OC,7.13
4,CC1(C)C2CC[C@]3(C)C(CC=C4[C@@H]5C[C@@](C)(CO)[C@@H](O)C[C@]56C[C@@H](OC6=O)[C@]43C)[C@@]2(C)CC[C@@H]1O (stereo partly shown),14.1
5,CCN(CC)S(=O)(=O)c1ccc(NC(=O)[C@@H](NC(=O)c2cc(OC)cc(OC)c2)C(C)C)cc1,11.2
6,Cc1ccc(OCC(=O)Nc2ccccc2-c2ccccc2NC(=O)COc2ccc(C)cc2)cc1,4.56
7,Cc1ccc(/C(N)=N/OC(=O)CSc2ccccc2)cc1,7.03
8,CN(C(=O)CCc1nc2ccccc2c(=O)[nH]1)C1CCS(=O)(=O)C1 (stereo not shown),9.63
9,CCCOc1cccc(C(=O)Nc2ccc(CN3CCOCC3)cc2)c1,7.88
10,CCOc1ccc(NC(=O)CN2CCN(CC(=O)Nc3ccccc3OC)CC2)cc1,-30.9
11,O=C(Cn1c(/C=C/c2ccccc2)nc2ccccc21)Nc1ccc(F)cc1,6.84
12,CC(=O)Nc1ccc(NC(=O)CSc2nnc3c4ccccc4n(C)c3n2)cc1,5.74
13,CCN(CC)S(=O)(=O)c1ccc(C(=O)NCCOC(=O)c2ccc(F)cc2F)cc1,16.2
14,CCCn1c(N)c(N(CCOC)C(=O)CSCC(=O)Nc2cccc(C)c2)c(=O)[nH]c1=O,10.2
15,Cc1ccc2c(c1)N(S(=O)(=O)c1ccc(CN3C(=O)c4cccnc4C3=O)s1)CCO2,5.88
16,O=C(c1ccco1)N1CCN(c2cccc(Cl)c2)CC1,9.98
17,CCCOC(=O)C(C)Sc1n[nH]c(=O)[nH]c1=O (stereo not shown),0.807
18,O=C(CSc1n[nH]c(-c2ccccc2)n1)Nc1ccc(F)cc1F,8.89
19,Cc1sc2nc(CSC(C)C(=O)N3CCOCC3)[nH]c(=O)c2c1C (stereo not shown),21.4
20,C[C@@]12CC[C@H]3OC(=O)C=C3C1CC[C@@]13CC(CCC12)[C@](CO)(O[C@H]1O[C@H](CO)[C@@H](O)[C@H](O)[C@H]1O)C3 (stereo partly shown),16.5
21,S=c1[nH]nc(-c2ccco2)n1/N=C/C=C/c1ccccc1,3.22
22,CCCS(=O)(=O)C/C(N)=N/OC(=O)c1ccc(Cl)cc1,4.94
